Results are given in words; binding and its absence hold for the method and conditions named. Binding seen in cells or lysates may run through a third protein. Some results given as binding are weak or reduced against the parent protein; the word gives no strength.

The chains behind the UniProt entries cited, without tags or fusion partners. Where a name states a change or a piece, a line headed by the entry shows the natural chain unless it says otherwise.
UniProt Q06A28: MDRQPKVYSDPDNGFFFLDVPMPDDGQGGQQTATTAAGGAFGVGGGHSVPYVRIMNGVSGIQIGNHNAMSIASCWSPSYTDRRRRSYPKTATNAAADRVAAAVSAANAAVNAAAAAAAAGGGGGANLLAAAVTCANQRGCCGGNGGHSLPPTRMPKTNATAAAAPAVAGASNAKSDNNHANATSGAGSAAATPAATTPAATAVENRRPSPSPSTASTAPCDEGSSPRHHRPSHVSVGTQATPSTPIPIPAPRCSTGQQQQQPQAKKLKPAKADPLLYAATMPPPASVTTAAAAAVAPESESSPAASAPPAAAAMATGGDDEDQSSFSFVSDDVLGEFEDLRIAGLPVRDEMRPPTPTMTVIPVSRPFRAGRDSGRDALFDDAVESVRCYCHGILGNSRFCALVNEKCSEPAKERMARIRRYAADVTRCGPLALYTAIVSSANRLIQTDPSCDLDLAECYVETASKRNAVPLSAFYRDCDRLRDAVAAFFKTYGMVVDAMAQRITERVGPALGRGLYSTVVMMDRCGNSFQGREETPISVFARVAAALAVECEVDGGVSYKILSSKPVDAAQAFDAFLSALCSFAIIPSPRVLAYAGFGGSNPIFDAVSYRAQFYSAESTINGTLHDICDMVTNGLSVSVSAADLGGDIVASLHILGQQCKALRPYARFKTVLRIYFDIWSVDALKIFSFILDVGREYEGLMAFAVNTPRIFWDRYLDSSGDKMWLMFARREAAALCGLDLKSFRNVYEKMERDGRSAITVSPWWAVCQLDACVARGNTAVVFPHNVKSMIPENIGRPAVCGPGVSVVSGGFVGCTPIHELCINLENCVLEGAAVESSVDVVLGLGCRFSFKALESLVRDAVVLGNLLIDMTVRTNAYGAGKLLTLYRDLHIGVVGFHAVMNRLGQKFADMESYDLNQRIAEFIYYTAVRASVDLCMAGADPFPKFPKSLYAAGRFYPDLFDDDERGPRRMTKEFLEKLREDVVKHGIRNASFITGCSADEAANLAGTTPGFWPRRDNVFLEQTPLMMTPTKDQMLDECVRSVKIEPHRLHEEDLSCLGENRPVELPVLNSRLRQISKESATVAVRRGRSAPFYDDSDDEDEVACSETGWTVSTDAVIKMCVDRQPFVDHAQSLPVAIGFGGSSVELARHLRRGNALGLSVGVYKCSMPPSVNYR
UniProt Q9UH17: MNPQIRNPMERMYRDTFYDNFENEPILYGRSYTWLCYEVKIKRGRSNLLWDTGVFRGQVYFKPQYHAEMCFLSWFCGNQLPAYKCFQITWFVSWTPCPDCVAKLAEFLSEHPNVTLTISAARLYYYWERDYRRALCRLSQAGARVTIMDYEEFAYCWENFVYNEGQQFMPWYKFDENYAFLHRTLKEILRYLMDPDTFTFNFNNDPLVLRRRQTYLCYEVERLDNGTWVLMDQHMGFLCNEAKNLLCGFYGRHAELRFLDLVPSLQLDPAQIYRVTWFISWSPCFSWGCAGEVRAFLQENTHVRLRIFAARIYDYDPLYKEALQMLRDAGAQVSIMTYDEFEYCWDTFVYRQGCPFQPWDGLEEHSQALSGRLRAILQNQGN
UniProt Q9HC16: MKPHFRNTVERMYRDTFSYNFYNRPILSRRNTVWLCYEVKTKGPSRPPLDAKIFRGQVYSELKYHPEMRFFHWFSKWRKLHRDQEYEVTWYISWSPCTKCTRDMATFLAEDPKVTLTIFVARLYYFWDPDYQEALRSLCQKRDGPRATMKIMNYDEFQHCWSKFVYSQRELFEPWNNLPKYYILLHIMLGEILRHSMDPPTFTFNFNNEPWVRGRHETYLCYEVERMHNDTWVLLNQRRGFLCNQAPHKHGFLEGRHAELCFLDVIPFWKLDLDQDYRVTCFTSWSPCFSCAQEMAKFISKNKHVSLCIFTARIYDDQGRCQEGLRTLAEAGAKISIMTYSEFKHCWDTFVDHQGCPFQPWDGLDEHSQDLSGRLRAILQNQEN
UniProt Q9Y6K9: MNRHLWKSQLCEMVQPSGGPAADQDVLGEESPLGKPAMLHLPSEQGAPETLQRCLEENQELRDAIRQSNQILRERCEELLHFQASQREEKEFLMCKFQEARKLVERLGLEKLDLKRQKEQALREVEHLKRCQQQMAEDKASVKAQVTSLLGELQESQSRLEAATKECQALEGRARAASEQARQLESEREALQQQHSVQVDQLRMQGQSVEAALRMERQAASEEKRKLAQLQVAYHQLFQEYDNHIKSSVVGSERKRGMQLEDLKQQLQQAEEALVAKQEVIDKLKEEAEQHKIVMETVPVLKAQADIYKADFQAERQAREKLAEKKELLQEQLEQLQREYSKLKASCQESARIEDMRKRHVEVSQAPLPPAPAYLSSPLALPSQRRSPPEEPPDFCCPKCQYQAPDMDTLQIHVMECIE
UniProt Q13546: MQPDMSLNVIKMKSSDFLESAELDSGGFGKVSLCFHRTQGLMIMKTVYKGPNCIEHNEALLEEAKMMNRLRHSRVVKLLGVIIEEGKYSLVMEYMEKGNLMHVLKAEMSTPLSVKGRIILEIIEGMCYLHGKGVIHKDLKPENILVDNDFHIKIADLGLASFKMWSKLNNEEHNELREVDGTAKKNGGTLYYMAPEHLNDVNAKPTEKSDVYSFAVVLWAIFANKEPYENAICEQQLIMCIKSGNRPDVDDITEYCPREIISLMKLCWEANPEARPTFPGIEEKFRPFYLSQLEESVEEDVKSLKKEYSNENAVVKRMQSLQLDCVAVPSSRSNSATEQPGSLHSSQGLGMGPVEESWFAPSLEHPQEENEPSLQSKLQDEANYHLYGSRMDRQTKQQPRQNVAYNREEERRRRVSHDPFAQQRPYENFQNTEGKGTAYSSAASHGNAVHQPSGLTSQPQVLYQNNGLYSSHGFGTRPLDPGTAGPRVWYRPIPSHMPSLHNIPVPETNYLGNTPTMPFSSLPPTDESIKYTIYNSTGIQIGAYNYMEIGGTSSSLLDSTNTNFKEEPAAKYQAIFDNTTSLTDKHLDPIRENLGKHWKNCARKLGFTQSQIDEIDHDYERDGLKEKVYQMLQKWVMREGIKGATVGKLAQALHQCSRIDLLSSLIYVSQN

Experiment [1] has as its target KSHV mNeon-ORF61mutIPAM (Kaposi's sarcoma-associated herpesvirus (KSHV, human herpesvirus 8)) (UniProt Q2HR67). As to the kind of experiment: co-IP; mNeon pulldown with mNeonGreen-Trap agarose beads from RIPA lysates (with benzonase, insoluble material discarded) of TetOn A3B or A3G RPE-1 cells infected with KSHV (MOI 0.1) or MHV-68 (MOI 5); A3 induced 16 hpi with 1 µg/mL doxycycline, lysis at 40 hpi; 1 h at 4°C; immunoblot. In general terms: A western blot detects proteins with antibodies after separation by electrophoresis.

Experiment [2] has as its target KSHV mNeon-ORF61 (viral ribonucleotide reductase R1 protein ORF61 with mNeonGreen) (Kaposi's sarcoma-associated herpesvirus (KSHV, human herpesvirus 8)) (UniProt Q2HR67). The experiment is described as above.
Experiment [3] addresses KSHV ORF61-HA (Kaposi's sarcoma-associated herpesvirus (KSHV, human herpesvirus 8)) (UniProt Q2HR67). As to the kind of experiment: co-IP; HEK-293A cells co-transfected, lysed 24 h later in mild lysis buffer (1% Nonidet P-40, 150 mM NaCl); HA-tagged R1 proteins precipitated with anti-HA antibody and rProtein A Sepharose; washes up to 500 mM NaCl; immunoblot.
Experiment [4] has as its target MCMV M45-HA (murine cytomegalovirus (MCMV)) (UniProt Q06A28). The experiment is described as above.

For “A3B-mScarlet-3xHA (human APOBEC3B fused with mScarlet and an HA tag) (from UniProt Q9UH17 1-382)”, the binding result in experiment [1] was “no binding”; in experiment [2], “binds”.
As for “A3G-mScarlet-2xHA (human APOBEC3G fused with mScarlet and an HA tag) (from UniProt Q9HC16 1-384)”, the binding entry in experiment [2] is given as “no binding”.
Consider “FLAG-tagged NEMO (pCMVTAG-NEMO) (from UniProt Q9Y6K9 1-419)”, for which the binding entry is listed as “no binding” in experiment [3] and “binds” in experiment [4].
For “FLAG-tagged human RIPK1 (pcDNA3.1-hRIPK1-Flag) (from UniProt Q13546 1-671)”, in that order: “no binding” and “binds”.
